Data reported in PubChem BioAssay AID588342 (National Center for Advancing Translational Sciences (NCATS), 2011).
Hit rate of the full screen: of about 360,000 compounds, about 25,000 (6.9%) were called active. Inconclusive results, whose numbers are uncertain, are shown with a selection of clear calls. Calls come from the whole dose curve; as a rule, active = well fitted inhibition curve with a large enough effect; inconclusive = small, poorly fitted or top-dose-only effect; inactive = flat fitted curve, though single readings scatter. Potencies beside an inconclusive call are fits to weak or partial responses and may not hold up.

biological target: Luciferin 4-monooxygenase (Photinus pyralis) (UniProt P08659); test: qHTS profiling assay for firefly luciferase inhibitor/activator using purifed enzyme and Km concentrations of substrates (counterscreen for miR-21 project); conditions: purified FLuc, luminescence inhibition; series mostly up to 57.5 µM; activity change, negative = inhibition: at the top concentration; note: nearly all actives have a fitted effect of over 55% in size;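 for activity change, negative = inhibition: plate controls were vehicle for no effect and reference inhibitor for full effect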
UniProt P08659, sequence (P08659 whole entry, looked up): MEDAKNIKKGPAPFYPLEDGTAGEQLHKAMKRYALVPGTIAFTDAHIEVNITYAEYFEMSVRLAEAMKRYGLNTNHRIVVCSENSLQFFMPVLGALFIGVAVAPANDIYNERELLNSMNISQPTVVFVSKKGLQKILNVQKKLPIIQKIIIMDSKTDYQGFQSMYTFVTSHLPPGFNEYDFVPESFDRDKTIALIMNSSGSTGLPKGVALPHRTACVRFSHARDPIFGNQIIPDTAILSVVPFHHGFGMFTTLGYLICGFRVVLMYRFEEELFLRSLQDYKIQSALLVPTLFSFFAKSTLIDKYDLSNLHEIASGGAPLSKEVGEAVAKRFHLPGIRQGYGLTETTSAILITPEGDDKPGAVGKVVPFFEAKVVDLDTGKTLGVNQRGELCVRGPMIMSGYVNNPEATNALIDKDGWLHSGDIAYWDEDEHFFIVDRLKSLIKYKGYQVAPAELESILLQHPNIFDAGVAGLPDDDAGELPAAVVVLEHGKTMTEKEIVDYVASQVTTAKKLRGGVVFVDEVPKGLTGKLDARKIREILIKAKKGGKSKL
Method in brief: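 Biochemical qHTS of compounds, final roughly 60 µM downward over six points, against 10 nM purified firefly luciferase using Km concentrations of substrates (10 uM D-luciferin, 10 uM ATP) in Tris acetate pH 7.5 buffer; luminescence output.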
Potency is the fitted concentration of half-maximal effect; tags give direction and shape of the fitted curve.

Structure (SMILES) | Potency | activity change, negative = inhibition
COc1cccc(/C=C/C(=O)c2ccc3c(c2)OCCO3)c1OC | active: 0.757 µM | 
CC(CNC(=O)c1ccccc1Cl)c1ccccc1 (stereo unspecified) | inconclusive: 26.9 µM [inhibitor, partial curve, poor fit] | 
O=C(Nc1ccccc1)[C@@H]1[C@@H]2C(=O)N(c3ccc(F)cc3)C(=O)[C@@H]2[C@H]2C=CC=NN21 | inconclusive: 21.3 µM [inhibitor, partial curve, poor fit] | 
Cc1[nH]n(-c2cccc3ccccc23)c(=O)c1/C=N/c1sc2c(c1C#N)CCC2 |  | inactive: -3.54%
COc1ccccc1NC(=O)CSc1ccc(-c2ccc(-n3ccnc3)cc2)nn1 | inconclusive: 2.39 µM [inhibitor, full curve] | 
O=C(O)CCCCCN1C(=O)C(O)=C(C(=O)/C=C/c2ccccc2)C1c1cccc([N+](=O)[O-])c1 (stereo unspecified) |  | inactive: -20%
COCCNC(=O)CSc1nc2ccccc2nc1Cc1ccc(C)cc1 |  | inactive: 2.27%
CN1CCN(/C=N/c2sc3c(c2C#N)CCCCC3)CC1 | active: 12 µM | 
O=C(NCc1n[nH]c(=S)n1-c1ccc(Cl)c(Cl)c1)c1cccs1 | inconclusive: 30.1 µM [inhibitor, partial curve, poor fit] | 
CCOC(=O)c1c(-c2ccc(OC)cc2)csc1NC(=O)C1CCCO1 (stereo unspecified) | inconclusive: 23.9 µM [inhibitor, partial curve, poor fit] | 
CCn1cc(C=C2C(=O)c3ccccc3C2=O)c2ccccc21 | active: 6.01 µM | 
CCOC(=O)c1c(-c2ccc(F)cc2)csc1NC(=O)C1CC=CCC1C(=O)O (stereo unspecified) | inconclusive: 30.1 µM [inhibitor, single point] | 
Cc1cc(C(=O)COC(=O)c2ccc(NC(=O)CC#N)cc2)c(C)n1C1CC1 | active: 13.5 µM | 
O=C(O)c1cccc(Nc2nc(-c3ccc([N+](=O)[O-])cc3)nc3ccccc23)c1 | inconclusive: 30.1 µM [inhibitor, single point] | 
O=C(CSc1cn[nH]n1)Nc1ccccc1C(F)(F)F |  | inactive: 0.706%
Cc1ccc(CNC(=O)C2COc3ccccc3O2)cc1 (stereo unspecified) | inconclusive: 23.9 µM [inhibitor, single point] | 
CC(C)S(=O)(=O)c1nsc2nc(=O)c(/C=C3\C=Nc4ccccc43)c(N)n12 | inconclusive: 37.9 µM [inhibitor, single point] | 
Fc1cc(NC(=S)NCc2ccc(CNC(=S)Nc3ccc(Cl)c(F)c3)cc2)ccc1Cl |  | inactive: -0.783%
COC(=O)c1sc(N2CCN(Cc3ccccc3)CC2)nc1N | inconclusive: 37.9 µM [inhibitor, partial curve, poor fit] | 
Cc1cccc(NC(=O)c2ccc3c(c2)C(=O)N(c2ccccc2C)C3=O)n1 | inconclusive: 19 µM [inhibitor, partial curve] | 
Cc1ccc(NC(=O)C(=O)NCCOc2ccc(Cl)cc2)c(C)c1 |  | inactive: 0.143%
COc1cccc(C2=NN(C(C)=O)C(c3cccs3)C2)c1 (stereo unspecified) | inconclusive: 37.9 µM [inhibitor, partial curve, poor fit] | 
O=C(O)CC1=C(Nc2ccccc2)C(=O)N(c2ccccc2)C1c1ccc(Cl)cc1 (stereo unspecified) | inconclusive: 42.6 µM [inhibitor, partial curve, poor fit] | 
Cc1ccc2nc(N3C(=O)C(O)=C(C(=O)c4cc5ccccc5o4)C3c3cccs3)sc2c1 (stereo unspecified) | active: 4.78 µM | 

Structure (SMILES) | Potency | activity change, negative = inhibition
Cc1ccc([N+](=O)[O-])cc1S(=O)(=O)Nc1ccc(-c2ccc(N3CCOCC3)nn2)cc1 | inconclusive: 30.1 µM [inhibitor, partial curve, poor fit] | 
COc1ccc(CCN(C)C(=O)c2ccc(C)c(S(=O)(=O)N3CCCCC3)c2)cc1OC |  | inactive: 0.151%
Cc1ccnc2nc(C(=O)Nc3nnc(CC(C)C)s3)nn12 |  | inactive: 3.99%
COc1ccc(/C=N/NC2=NCCCCC2)c(OC)c1 | active: 16.9 µM | 
COc1ccc(NC(=O)C2CCC(CNS(=O)(=O)c3csc(C(N)=O)c3)CC2)cc1OC (stereo unspecified) |  | inactive: -0.339%
CC(C)CN(c1ccccc1)S(=O)(=O)c1nnc(NC(=O)C2CCCCC2)s1 | inconclusive: 4.26 µM [inhibitor, partial curve, poor fit] | 
O=C(NCc1cccnc1)C12CC3CC(CC(Cl)(C3)C1)C2 | inconclusive: 23.9 µM [inhibitor, partial curve, poor fit] | 
Cc1ccc(Nc2nc3ccccc3n3cnnc23)cc1Cl | inconclusive: 8.49 µM [inhibitor, partial curve, poor fit] | 
CCc1ccccc1NC(=O)Cn1nnc(C(=O)NCc2ccco2)c1N |  | inactive: 1.88%
CCC(=O)c1ccc(OCc2ccc(C#N)cc2)cc1 | inconclusive: 15.1 µM [inhibitor, partial curve, poor fit] | 
O=C(Nc1sc2c(c1C(=O)O)CCCCC2)c1cccnc1 | active: 16.9 µM | 
CCCCCCSc1cccc(-c2nc3cc(C)ccn3c2NCc2ccccc2)c1 | inconclusive: 21.3 µM [inhibitor, partial curve, poor fit] | 
O=C(c1cc(COc2ccc(F)cc2Cl)on1)N(CCO)Cc1cccs1 | inconclusive: 37.9 µM [inhibitor, partial curve, poor fit] | 
O=C(Nc1nc2c(Cl)cccc2s1)c1ccc([N+](=O)[O-])o1 | inconclusive: 21.3 µM [inhibitor, single point] | 
COc1ccc(/C=N/Nc2nc(C)cc(-c3ccccc3)n2)c(OC)c1 | inconclusive: 3.01 µM [inhibitor, single point] | 
O=c1[nH]c(SCc2ccccc2)nc2ccsc12 | active: 16.9 µM | 
Nc1cc(N)cc(C(=O)OCC(=O)Nc2cc(S(=O)(=O)N3CCCCC3)ccc2Cl)c1 | active: 16.9 µM | 
CCOc1ccc2nc(N3CCCC(C(=O)NCCc4ccc(OC)cc4OC)C3)sc2c1 (stereo unspecified) | inconclusive: 4.26 µM [inhibitor, full curve] | 
CC(=O)c1ccccc1NC(=O)COC(=O)C1CCCN1S(=O)(=O)c1ccccc1F (stereo unspecified) | inconclusive: 21.3 µM [inhibitor, single point] | 
CC(C)Cc1nn2cc(-c3cccc(Br)c3)nc2s1 | active: 0.426 µM | 
CC(C)c1ccc(-c2nn(-c3ccccc3)cc2C(=O)NCC2CCCO2)cc1 (stereo unspecified) |  | inactive: -11.6%
Cc1ccc(Cn2cc(-c3ccccc3)nn2)cc1 | inconclusive: 23.9 µM [inhibitor, partial curve] | 
COC(=O)c1cc2c(=O)c3ccccc3oc2nc1/C=C/N(C)C | inconclusive: 1.9 µM [inhibitor, full curve] | 
Cc1ccc(NCC(=O)c2ccccc2)cc1Cl | inconclusive: 6.01 µM [inhibitor, full curve] | 

Structure (SMILES) | Potency | activity change, negative = inhibition
CCCC(=O)NC(=S)Nc1ccc(C(C)=O)cc1 | inconclusive: 8.49 µM [inhibitor, partial curve, poor fit] | 
COC(=O)c1ccc2[nH]c(C)cc(=O)c2c1 |  | inactive: 3.83%
COc1ccc(-c2nc3sc(CCNC(=O)C(C)(C)C)c(C)n3n2)cc1 | inconclusive: 21.3 µM [inhibitor, partial curve] | 
CCN(CC)S(=O)(=O)c1cccc(NC(=O)Nc2cccc(C(F)(F)F)c2)c1 |  | inactive: -18.3%
CCN(c1ccc(OC)cc1)S(=O)(=O)c1ccc2c(c1)NC(=O)CS2 | inconclusive: 26.9 µM [inhibitor, single point] | 
O=C(O)CCc1ccc(-c2ccc(Br)cc2)n1-c1ccccc1O | inconclusive: 30.1 µM [inhibitor, single point] | 
O=C(CCCCCN1C(=O)c2cccc3cccc(c23)C1=O)NC1CCS(=O)(=O)C1 (stereo unspecified) | active: 15.1 µM | 
Oc1ccccc1CNc1cnc2ccccc2c1 | active: 10.7 µM | 
O=C(c1cc(-c2cccs2)nc2ccccc12)N1CCN(c2ccccc2O)CC1 | active: 21.3 µM | 
COCCNC(=O)c1ccc2c3n(nc2c1)-c1ccc(Cl)cc1CO3 | active: 8.49 µM | 
CCCC(=O)Nc1cccc(-c2nc3ccccc3o2)c1 | inconclusive: 8.49 µM [inhibitor, partial curve, poor fit] | 
O=C(NC(=S)Nc1ccc(Cc2ccncc2)cc1)c1ccccc1 | inconclusive: 26.9 µM [inhibitor, partial curve] | 
Cc1ccc(-c2nc3ccccc3s2)cc1NC(=S)NC(=O)/C=C/c1ccco1 | inconclusive: 23.9 µM [inhibitor, single point] | 
CN(C(=O)c1ccc(NC(=O)Cc2ccc(NC(=O)C3CCCN(C(=O)C4CCCC4)C3)cc2)cc1)C1CC1 (stereo unspecified) | inconclusive: 19 µM [inhibitor, single point] | 
CC(=C/c1ccccc1)/C=N/NC(=O)c1ccccn1 | active: 0.601 µM | 
Cc1sc2nc(C3CC3)nc(NCCNS(C)(=O)=O)c2c1C | inconclusive: 21.3 µM [inhibitor, partial curve, poor fit] | 
COc1ccc(Cl)cc1NC(=O)C(=O)NCc1ccc(Cl)cc1 |  | inactive: 1.84%
Cc1cccc(NC(=O)CCOc2ccccc2)c1 | inconclusive: 23.9 µM [inhibitor, single point] | 
Cc1ccc(NC(=O)C2CCCN(C(=O)NCc3ccccc3)C2)c(C)c1 (stereo unspecified) |  | inactive: -1.05%
COc1ccc(C(=O)Nc2sc3c(c2C#N)CCN(C(C)=O)C3)cc1 | inconclusive: 37.9 µM [inhibitor, single point] | 
CCOc1ccc(OCCCC(=O)Nc2cc(Cl)ccc2-n2cncn2)cc1 | inconclusive: 23.9 µM [inhibitor, partial curve, poor fit] | 
CCOc1ccc(C(=O)Nc2cc(-c3nc4ccccc4[nH]3)ccc2C)cc1[N+](=O)[O-] | active: 8.49 µM | 
O=C(Nc1cccc(-c2ccc(N3CCCCC3)nn2)c1)c1ccc(Br)o1 | active: 0.338 µM | 
